Measured values reported in US20260327262A1, “BICYCLIC PEPTIDE LIGANDS SPECIFIC FOR EPHA2” (BicycleTx Limited, priority 2019, published 2026).

Biological target: human EphA2 (Homo sapiens, UniProt P29317)
Assay: Competition Binding Assay (fluorescence polarisation, competition with fluorescent tracer BCY90)
Experimental: Peptides without a fluorescent tag were tested in competition with a peptide with a fluorescent tag and a known Kd.
Peptides were diluted to an appropriate concentration in assay buffer as described in the direct binding assay with a maximum of 5% DMSO, then serially diluted 1 in 2. […] Measurements were conducted, however the gain was determined prior to the first measurement. Data analysis was in Systat Sigmaplot version 12.0 where the mP values were fit to a user defined cubic equation to generate a Ki value: • f=ymax+(ymin−ymax)/Lig*((Lig*((2*((Klig+Kcomp+Lig+Comp−Prot*c)^2−3*(Kcomp*(Lig−Prot*c)+Klig*(Comp−Prot*c)+Klig*Kcomp))^0.5*COS(ARCCOS((−2*(Klig+Kcomp+Lig+Comp−Prot*c)^3+9*(Klig+Kcomp+Lig+Comp−Prot*c)*(Kcomp*(Lig−Prot*c)+Klig*(Comp−Prot*c)+Klig*Kcomp)−27*(−1*Klig*Kcomp*Prot*c))/(2*((((Klig+Kcomp+Lig+Comp−Prot*c)^2−3*(Kcomp*(Lig−Prot*c)+Klig*(Comp−Prot*c)+Klig*Kcomp))^3)^0.5)))/3))−(Klig+Kcomp+Lig+Comp−Prot*c)))/((3*Klig)+((2*((Klig+Kcomp+Lig+Comp−Prot*c)^2−3*(Kcomp*(Lig−Prot*c)+Klig*(Comp−Prot*c)+Klig*Kcomp))^0.5*COS(ARCCOS((−2*(Klig+Kcomp+Lig+Comp−Prot*c)^3+9*(Klig+Kcomp+Lig+Comp−Prot*c)*(Kcomp*(Lig−Prot*c)+Klig*(Comp−Prot*c)+Klig*Kcomp)−27*(−1*Klig*Kcomp*Prot*c))/(2*((((Klig+Kcomp+Lig+Comp−Prot*c)^2−3*(Kcomp*(Lig−Prot*c)+Klig*(Comp−Prot*c)+Klig*Kcomp))^3)^0.5)))/3))−(Klig+Kcomp+Lig+Comp−Prot*c)))). […]

human EphA2, sequence (P29317 24-976): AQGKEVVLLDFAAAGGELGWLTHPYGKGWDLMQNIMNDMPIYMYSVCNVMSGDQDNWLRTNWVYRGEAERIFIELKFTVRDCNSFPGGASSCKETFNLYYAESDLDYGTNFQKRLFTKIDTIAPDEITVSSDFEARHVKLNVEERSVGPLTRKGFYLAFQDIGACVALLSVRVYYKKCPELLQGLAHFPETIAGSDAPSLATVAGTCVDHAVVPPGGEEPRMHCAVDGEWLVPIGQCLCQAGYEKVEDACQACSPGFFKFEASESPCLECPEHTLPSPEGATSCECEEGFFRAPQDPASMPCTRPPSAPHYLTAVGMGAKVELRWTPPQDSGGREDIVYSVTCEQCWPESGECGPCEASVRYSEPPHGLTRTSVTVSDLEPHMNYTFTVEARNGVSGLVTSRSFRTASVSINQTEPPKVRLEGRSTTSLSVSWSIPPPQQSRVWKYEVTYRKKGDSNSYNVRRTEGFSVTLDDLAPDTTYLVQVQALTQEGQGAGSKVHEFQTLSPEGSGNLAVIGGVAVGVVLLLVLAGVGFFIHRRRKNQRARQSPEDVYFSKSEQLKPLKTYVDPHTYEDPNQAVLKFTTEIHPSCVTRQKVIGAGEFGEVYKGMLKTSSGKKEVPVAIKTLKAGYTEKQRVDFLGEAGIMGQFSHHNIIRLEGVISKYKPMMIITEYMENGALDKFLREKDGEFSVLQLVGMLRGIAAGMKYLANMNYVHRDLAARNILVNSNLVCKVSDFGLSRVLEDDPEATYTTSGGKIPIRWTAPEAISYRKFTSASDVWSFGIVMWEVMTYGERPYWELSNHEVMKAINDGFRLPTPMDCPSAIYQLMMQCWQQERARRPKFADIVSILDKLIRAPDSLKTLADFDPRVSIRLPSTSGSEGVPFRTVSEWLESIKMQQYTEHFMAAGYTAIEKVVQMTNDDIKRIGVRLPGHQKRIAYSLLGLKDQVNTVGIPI

Substance | Ki
A-[HArg]-D-Ci[HyP]LVNPLCiiLHP[dD]W[HArg]Ciii [BCY9594] | 1.44 nM
AD-Ci[HyP]LVNPLCiiLEP[dD]WTCiii [BCY13128] | 16.1 nM
